Results reported in the supplement of paper PMC12217912.
Some of the results follow. The full chains were built here from the parent and the listed change. Inactive controls read about 0.05.

B1: TEV protease; numbered along this chain (parent)
chain: MGESLFKGPRDYNPISSSICHLTNESDGHTTSLYGIGFGPFIITNKHLFRRNNGTLVVQSLHGVFKVKDTTTLQQHLVDGRDMIIIRMPKDFPPFPQKLKFREPQREERICLVTTNFQTKSMSSMVSDTSCTFPSGDGIFWKHWIQTKDGQCGSPLVSTRDGFIVGIHSASNFTNTNNYFTSVPKNFMELLTNQEAQQWVSGWRLNADSVLWGGHKVFMVKPEEPFQPVKEATQL

Variants of: B1
Test: raw area under fraction-flipped curve 0-4 h after induction (AUC4h, not background-subtracted), DNA-recorder readout of cleavage of the substrate (dimensionless); higher = more cleavage of the substrate by the protease variant
Conditions: temperature: 34 °C; time window: 0-4 h after rhamnose induction
Method: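 In vivo DNA recorder in E. coli TOP10(DE3) ΔrhaA at 34 °C. Each TEVp single-site mutant (parent TEVp 0) is paired with a single-site variant of the 7-mer TEVs (canonical ENLYFQ|S). The substrate sits between flexible linkers in a Bxb1-sfGFP-TEVs-SsrA fusion, so cleavage stabilises Bxb1 and speeds flipping of a recombination array, read by NGS. The value is the raw area under the fraction-flipped curve over 0-4 h after rhamnose induction (AUC4h), with ≥20 reads per time point. It is not background-subtracted; inactive controls average about 0.047.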
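Also: Bxb1 expression induced with 0.2% (w/v) L-rhamnose at OD600 near 0.5, cultures sampled hourly, flipped fraction per protease–substrate barcode pair counted by paired-end Illumina sequencing.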

Variant	area with substrate ENLAFQS	area with substrate ENLCFQS	area with substrate ENLEFQS	area with substrate ENLFFQS	area with substrate ENLGFQS	area with substrate ENLHFQS	area with substrate ENLKFQS	area with substrate ENLLFQS	area with substrate ENLNFQS	area with substrate ENLPFQS	area with substrate ENLRFQS	area with substrate ENLSFQS	area with substrate ENLVFQS	area with substrate ENLWFQS	area with substrate ENLIFQS	area with substrate ENLQFQS	area with substrate ENLDFQS	area with substrate ENLMFQS	area with substrate ENLTFQS
MGESLFKGPRDYNPISSSICHLTNESDGHTTSLYGIGFGPFIITNKHLFGRNNGTLVVQSLHGVFKVKDTTTLQQHLVDGRDMIIIRMPKDFPPFPQKLKFREPQREERICLVTTNFQTKSMSSMVSDTSCTFPSGDGIFWKHWIQTKDGQCGSPLVSTRDGFIVGIHSASNFTNTNNYFTSVPKNFMELLTNQEAQQWVSGWRLNADSVLWGGHKVFMVKPEEPFQPVKEATQL [R50G]	0.0644	0.0425	0.0619	0.0812	0.0736	0.0692	0.0636	0.0569	0.0283	0.0643	0.0824	0.059	0.0734	0.0871					
MGESLFKGPRDYNPISSSICHLTNESDGHTTSLYGIGFGPFIITNKHLFIRNNGTLVVQSLHGVFKVKDTTTLQQHLVDGRDMIIIRMPKDFPPFPQKLKFREPQREERICLVTTNFQTKSMSSMVSDTSCTFPSGDGIFWKHWIQTKDGQCGSPLVSTRDGFIVGIHSASNFTNTNNYFTSVPKNFMELLTNQEAQQWVSGWRLNADSVLWGGHKVFMVKPEEPFQPVKEATQL [R50I]	0.0557		0.0592							0.0437	0.0982	0.0597	0.0927		0.131	0.0279			
MGESLFKGPRDYNPISSSICHLTNESDGHTTSLYGIGFGPFIITNKHLFRPNNGTLVVQSLHGVFKVKDTTTLQQHLVDGRDMIIIRMPKDFPPFPQKLKFREPQREERICLVTTNFQTKSMSSMVSDTSCTFPSGDGIFWKHWIQTKDGQCGSPLVSTRDGFIVGIHSASNFTNTNNYFTSVPKNFMELLTNQEAQQWVSGWRLNADSVLWGGHKVFMVKPEEPFQPVKEATQL [R51P]	0.0698	0.0659	0.0563	0.0582		0.0744	0.0604	0.077	0.0428		0.0686	0.0562			0.0658	0.0615	0.062	0.0602	
MGESLFKGPRDYNPISSSICHLTNESDGHTTSLYGIGFGPFIITNKHLFRRNFGTLVVQSLHGVFKVKDTTTLQQHLVDGRDMIIIRMPKDFPPFPQKLKFREPQREERICLVTTNFQTKSMSSMVSDTSCTFPSGDGIFWKHWIQTKDGQCGSPLVSTRDGFIVGIHSASNFTNTNNYFTSVPKNFMELLTNQEAQQWVSGWRLNADSVLWGGHKVFMVKPEEPFQPVKEATQL [N53F]	0.0625		0.0647	0.0699		0.0543	0.0729	0.0702	0.0563	0.0508	0.0644	0.0569	0.0802	0.0838	0.0685	0.0438	0.0617		
MGESLFKGPRDYNPISSSICHLTNESDGHTTSLYGIGFGPFIITNKHLFRRNWGTLVVQSLHGVFKVKDTTTLQQHLVDGRDMIIIRMPKDFPPFPQKLKFREPQREERICLVTTNFQTKSMSSMVSDTSCTFPSGDGIFWKHWIQTKDGQCGSPLVSTRDGFIVGIHSASNFTNTNNYFTSVPKNFMELLTNQEAQQWVSGWRLNADSVLWGGHKVFMVKPEEPFQPVKEATQL [N53W]	0.0681			0.0809	0.0695	0.0585	0.0758		0.066	0.0589	0.0644	0.0547		0.0722	0.0705	0.0641	0.0627	0.0736	0.0638
MGESLFKGPRDYNPISSSICHLTNESDGHTTSLYGIGFGPFIITNKHLFRRNNGDLVVQSLHGVFKVKDTTTLQQHLVDGRDMIIIRMPKDFPPFPQKLKFREPQREERICLVTTNFQTKSMSSMVSDTSCTFPSGDGIFWKHWIQTKDGQCGSPLVSTRDGFIVGIHSASNFTNTNNYFTSVPKNFMELLTNQEAQQWVSGWRLNADSVLWGGHKVFMVKPEEPFQPVKEATQL [T55D]	0.0625		0.0514	0.0652	0.0477	0.0719	0.0601	0.0675	0.0635	0.0701		0.0338	0.0729		0.0632		0.0538		
MGESLFKGPRDYNPISSSICHLTNESDGHTTSLYGIGFGPFIITNKHLFRRNNGLLVVQSLHGVFKVKDTTTLQQHLVDGRDMIIIRMPKDFPPFPQKLKFREPQREERICLVTTNFQTKSMSSMVSDTSCTFPSGDGIFWKHWIQTKDGQCGSPLVSTRDGFIVGIHSASNFTNTNNYFTSVPKNFMELLTNQEAQQWVSGWRLNADSVLWGGHKVFMVKPEEPFQPVKEATQL [T55L]	0.0433		0.0431	0.0957		0.0625			0.0581		0.0677	0.0526	0.0739	0.0725			0.0136		
MGESLFKGPRDYNPISSSICHLTNESDGHTTSLYGIGFGPFIITNKHLFRRNNGNLVVQSLHGVFKVKDTTTLQQHLVDGRDMIIIRMPKDFPPFPQKLKFREPQREERICLVTTNFQTKSMSSMVSDTSCTFPSGDGIFWKHWIQTKDGQCGSPLVSTRDGFIVGIHSASNFTNTNNYFTSVPKNFMELLTNQEAQQWVSGWRLNADSVLWGGHKVFMVKPEEPFQPVKEATQL [T55N]	0.0549	0.0855	0.0643	0.0798	0.0655	0.0672	0.0709	0.0556	0.0633	0.0466		0.0494		0.0519			0.0737		
MGESLFKGPRDYNPISSSICHLTNESDGHTTSLYGIGFGPFIITNKHLFRRNNGTLVHQSLHGVFKVKDTTTLQQHLVDGRDMIIIRMPKDFPPFPQKLKFREPQREERICLVTTNFQTKSMSSMVSDTSCTFPSGDGIFWKHWIQTKDGQCGSPLVSTRDGFIVGIHSASNFTNTNNYFTSVPKNFMELLTNQEAQQWVSGWRLNADSVLWGGHKVFMVKPEEPFQPVKEATQL [V58H]	0.0521	0.0541					0.0503	0.0507		0.0532	0.0481			0.0273			0.0399		
